Data reported in patent US20220323495A1.
Results are given in words; binding and its absence hold for the method and conditions named. Some results given as binding are weak or reduced against the parent protein; the word gives no strength.

How the values were obtained:
[1] = target: T1, EGFRvIII amino acid residues 15 to 37 with Gly21 to Ala mutation, yeast-displayed (human); experiment: condition: 0% to 15% of binding to the wild-type fragment; flow cytometry on yeast displaying the mutated 15-37 fragment
T1 sequence (peptide): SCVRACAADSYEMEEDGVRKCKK

[2] = target: T2, EGFRvIII amino acid residues 15 to 37 with Cys35 to Ala mutation, yeast-displayed (human); experiment: as above
T2 sequence (peptide): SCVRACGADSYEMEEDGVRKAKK

[3] = target: T3, EGFRvIII amino acid residues 15 to 37 with Arg18 to Ala mutation, yeast-displayed (human); experiment: as above
T3 sequence (peptide): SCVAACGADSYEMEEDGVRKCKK

[4] = target: T4, EGFRvIII amino acid residues 15 to 37 with Cys20 to Ala mutation, yeast-displayed (human); experiment: as above
T4 sequence (peptide): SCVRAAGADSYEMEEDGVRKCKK

[5] = target: full length hEGFRvIII protein, yeast-displayed (human) (UniProt P00533); experiment: flow cytometry on yeast displaying EGFRvIII constructs

binding [1]: no binding | binding [2]: no binding | binding [3]: no binding | binding [4]: no binding | binding [5]: binds
B1: F269-3D12 anti-EGFRvIII monoclonal antibody (antibody, V domains shown)
VH: EVQLQQSGPELVKPGSSVRISCKASGYTFTDYNMDWVKQSHGKSLEWIGTINPNNGGTSYNQKFKGKATLTVDKSSSTAYMELRSLTSEDSAVYYCARVRQLGLWFAYWGQGTLVTVSA
VL: EIVLTQSPALMAASPGEKVTITCSVSSSISSSNLHWYQQKSETSPKPWIYGTSNLASGVPVRFSGSGSGTSYSLTISSMEAEDAATYYCQQWSSYPLTFGSGTKLEIK
